Assay results published in patent publication US12643954B2, “Anti-CD36 antibodies and their use to treat cancer” (ONA Therapeutics, S.L., priority 2020, dated 2026).

What was measured:
mouse CD36 = biological target: T1, mouse CD36 (Mus musculus, UniProt Q08857); assay: ELISA binding to plate-coated mouse CD36; conditions: recombinant mouse CD36 coated plates
T1 construct: purchased Sino Biological 50422-M08H
Protocol: (§1) To perform ELISA assays, 96-well ELISA plates were coated over night with human CD36 (Sino Biological, reference 10752-H08H) or mouse CD36 (Sino Biological, reference 50422-M08H) recombinant proteins at a concentration of 0.25 mg/ml. After two washes with PBS, plates were blocked with 4% skimmed milk in PBS for 1 hour at 37° C. Blocking solution was discarded and plates were washed five times with 200 μl/well PBS-Tween20 (0.5%). Primary antibodies were either omitted (control blocking solution treatment) or mixed in blocking solution at several dilutions ranging from 0.01 nM to 0.5 μM. The primary antibody solutions were added to the wells and incubated over night at 4° C. After 5 washes with 200 ul/well of PBS-Tween20 (0.5%), plates were incubated for 1 hour at room temperature with a goat anti-mouse HRP-conjugated antibody (Abeam, reference ab97235) diluted 1:2000 in blocking solution. Plates were then washed 5 times with 200 μl/well of PBS-Tween20 (0.5%), incubated with 100 μl/well TMB and detected after 10 minutes, 30 minutes, or 60 minutes with a spectrophotometer at a wave length of 630 nm.

CD36 [1] = biological target: T2, CD36 (Homo sapiens, UniProt P16671); assay: ELISA binding to plate-coated human CD36; set-up: purchased Sino Biological 10752-H08H; conditions: recombinant human CD36 coated plates
T2 sequence (P16671 whole entry): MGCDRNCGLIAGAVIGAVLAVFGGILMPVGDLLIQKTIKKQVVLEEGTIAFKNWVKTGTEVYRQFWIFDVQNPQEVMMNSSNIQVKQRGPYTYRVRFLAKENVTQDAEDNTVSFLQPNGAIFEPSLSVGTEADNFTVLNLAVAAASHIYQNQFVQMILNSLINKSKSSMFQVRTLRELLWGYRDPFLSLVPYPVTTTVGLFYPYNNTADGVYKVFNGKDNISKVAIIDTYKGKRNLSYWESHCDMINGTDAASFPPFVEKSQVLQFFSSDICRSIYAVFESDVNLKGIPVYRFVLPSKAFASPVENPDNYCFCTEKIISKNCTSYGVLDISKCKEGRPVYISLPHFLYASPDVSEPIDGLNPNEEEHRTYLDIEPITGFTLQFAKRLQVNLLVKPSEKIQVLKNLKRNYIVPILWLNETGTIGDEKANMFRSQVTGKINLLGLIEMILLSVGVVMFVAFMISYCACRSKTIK
Protocol: as §1

A549 cells = assay: A549 tail-vein mouse model of metastatic lung cancer; format: in vivo
Protocol: Studies of the effects of the 1G04 anti-CD36 antibody on lung cancer were performed in NSG mice (immuno-deficient). The studies included only female mice. All mice were inoculated with commercially available A549-luc2 (ATCC) cancer cells, a modified version of A549 cells generated by stable transduction with a lentiviral vector expressing luciferase. A549 cells are cells derived from a lung carcinoma (i.e. from a lung cancer), and therefore were used as part of a mouse model of lung cancer. Prior to inoculation, the A549 cells were cultured in a humidified incubator at 37° C. with 5% CO2, and were grown in F-12K medium supplemented with 5 μg ml^−1 penicillin/streptomycin and 10% FBS (GIBCO).
For each mouse, 1×10^6 A549 cells were inoculated intravenously via tail vein injection. Each mouse was imaged after inoculation and one week later and lung metastasis was confirmed by luminescence prior to start of treatment. Treatment began 8 days after inoculation with the A549 cells. As detailed in FIG. 30B, inoculated mice were divided into one of two treatment groups: vehicle injection control (n=11) or 1G04 treatment (n=11). Antibody treatments were administered via intraperitoneal (i.p.) injection at a dose of 10 mg/kg three times per week, while control mice received an equal volume of vehicle on the same schedule. One day prior to the start of treatment, and once weekly after the start of treatment, all mice were imaged via IVIS. Mice were sacrificed at the end of the treatment period (day 61). Upon sacrifice, organs and tissues were collected for performance of necropsy and ex-vivo IVIS.

HCT-116 cells = assay: HCT-116 orthotopic mouse model of colon cancer (Example 10); format: in vivo
Protocol: Studies of the effects of the 1G04 anti-CD36 antibody on colon cancer were performed in BALB/c nude mice (immuno-deficient). The studies included only female mice. All mice were inoculated with commercially available HCT-116 (ATCC) cancer cells, transduced with a retroviral vector expressing luciferase. HCT-116 cells were derived from a human colorectal carcinoma (i.e., from a colon cancer). Prior to inoculation, the HCT-116 cells were cultured in a humidified incubator at 37° C. with 5% CO2, and were grown in McCoy's 5A medium supplemented with 5 μg ml^−1 penicillin/streptomycin and 10% FBS (GIBCO).
For each mouse, 2×10^6 HCT-116 cells were inoculated via orthotopic injection. Each mouse was imaged after inoculation and one week later and liver metastasis were confirmed by ex vivo luminescence prior to start of treatment. Treatment began 12 days after inoculation with the HCT-116 cells. Inoculated mice were divided into one of two treatment groups: vehicle injection control (n=10) or 1G04 treatment (n=10). Antibody treatments were administered via intraperitoneal (i.p.) injection at a dose of 10 mg/kg three times per week, while control mice received an equal volume of vehicle on the same schedule. One day prior to the start of treatment, and at 7, 14, and 21 days after the start of treatment, all mice were imaged via IVIS. Mice were sacrificed at the end of the treatment period (day 25). Upon sacrifice, organs and tissues were collected for performance of necropsy, ex-vivo IVIS, and histopathology.

CD36 [2] = biological target: T2, CD36; assay: Luminescence-based fatty acid uptake assay in SCC-25 cells expressing CD36; format: cell-based; set-up: host or cells: SCC-25 cells stably transduced with a retroviral vector expressing CD36 and a lentiviral luciferase vector; conditions: 10 ug/ml antibody
Protocol: To measure the ability of anti-CD36 antibodies to alter fatty-acid uptake driven by CD36, commercially available SCC-25 cells (ATCC) were modified by stable transduction with a retroviral vector expressing CD36 and a lentiviral vector expressing luciferase. These cells, derived from a squamous cell carcinoma of the tongue, were grown were grown in keratinocyte serum-free medium (KSFM) supplemented with 5 µg/ml penicillin/streptomycin, 0.025 mg/ml bovine pituitary extract and 0.2 μg/ml hEGF. Fatty acid uptake was evaluated using a commercially available bioluminescent-labelled long chain fatty acid analogue (SwissLumix) as a substrate. To perform the assay, cells were plated in 96-well plates and, starting the following day, were stimulated with 100 uM palmitic acid for 48 hours. Isotype control antibody or 1G04 were added at 10 ug/ml prior to palmitic stimulation and refreshed on the following days. To quantify uptake kinetics, substrate was added to plates after washing with PBSIX, and readings were taken over time using a Synergy HIM plate reader.

[3] = 10 mg/kg i.p. three times per week

T1 sequence (Q08857 30-439 limits assumed): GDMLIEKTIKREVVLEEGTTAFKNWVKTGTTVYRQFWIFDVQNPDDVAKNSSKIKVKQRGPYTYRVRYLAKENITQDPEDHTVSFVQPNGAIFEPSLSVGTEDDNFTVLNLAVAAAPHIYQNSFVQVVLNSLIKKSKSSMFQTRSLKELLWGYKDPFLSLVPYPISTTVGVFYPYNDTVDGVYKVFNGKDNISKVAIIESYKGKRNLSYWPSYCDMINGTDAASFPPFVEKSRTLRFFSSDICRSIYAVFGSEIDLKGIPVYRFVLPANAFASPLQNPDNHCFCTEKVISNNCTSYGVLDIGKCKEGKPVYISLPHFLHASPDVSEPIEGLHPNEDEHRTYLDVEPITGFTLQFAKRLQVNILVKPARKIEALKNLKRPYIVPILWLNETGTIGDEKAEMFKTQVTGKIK

B1: 1G04: chimeric ONA-0-v1 IgG1 LALA antibody; heavy chain SEQ ID NO: 21, light chain SEQ ID NO: 23 (antibody)
heavy: QVQLKQSGADLVRPGASVKLSCKASGYTFTDYYINWVKQRPGQGLEWIARIYPGSGNTYYNEKFKGKATLTAEKSSSTAYMQLSSLTSEDSAVYFCARGIGGGFGMDYWGQGTSVTVSS[skipping human IgG1 constant region with changes]
light: SIVMTQTPKFLLVSAGDRITITCKASQSVSDDVAWYQQKPGQSPKLLIYYASNRYTGVPDRFTGSGYGTDFTFTISTVQAEDLAVYFCQQDYSSPLTFGAGTKLEIKRTVAAPSVFIFPPSDEQLKSGTASVVCLLNNFYPREAKVQWKVDNALQSGNSQESVTEQDSKDSTYSLSSTLTLSKADYEKHKVYACEVTHQGLSSPVTKSFNRGEC
modifications: 1G04 heavy chain; 1G04 light chain; 1G06 light chain
- binding to mouse CD36 in ELISA (mouse CD36): specifically bound
- binding to human CD36 in ELISA (CD36 [1]): specifically bound
- whole-animal bioluminescence over time (A549 cells; [3]): reduced the growth
- mean lung weight at endpoint (A549 cells; day 61): 0.72 g
- reduction of mean lung weight vs vehicle (A549 cells; day 61): 20%
- body weight during course of treatment (HCT-116 cells; [3]): better able to maintain weight
- whole-animal bioluminescence over time (HCT-116 cells; [3]): decreased whole animal luminescence
- mean ex vivo luminescence, lung (HCT-116 cells; IVIS at sacrifice): 1.68*10^6
- fatty acid uptake kinetics over time (CD36 [2]): blocked fatty acid uptake over time
- inhibition of fatty acid uptake relative to control cells (CD36 [2]; 256 seconds after addition of substrate, palmitic acid stimulated): approximately 17%
